According to the supplement of paper PMC12217912:
The other results are listed elsewhere or left out. Sequences were assembled here from the parent chain. Inactive controls read about 0.05.

B1: TEV protease; numbered along this chain (parent)
chain: MGESLFKGPRDYNPISSSICHLTNESDGHTTSLYGIGFGPFIITNKHLFRRNNGTLVVQSLHGVFKVKDTTTLQQHLVDGRDMIIIRMPKDFPPFPQKLKFREPQREERICLVTTNFQTKSMSSMVSDTSCTFPSGDGIFWKHWIQTKDGQCGSPLVSTRDGFIVGIHSASNFTNTNNYFTSVPKNFMELLTNQEAQQWVSGWRLNADSVLWGGHKVFMVKPEEPFQPVKEATQL

Variants of: B1
Experiment: raw area under fraction-flipped curve 0-4 h after induction (AUC4h, not background-subtracted), DNA-recorder readout of cleavage of the substrate (dimensionless); higher = more cleavage of the substrate by the protease variant
Conditions: temperature: 34 °C; time window: 0-4 h after rhamnose induction
Procedure: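 In vivo DNA recorder in E. coli TOP10(DE3) ΔrhaA at 34 °C. Each TEVp single-site mutant (parent TEVp 0) is paired with a single-site variant of the 7-mer TEVs (canonical ENLYFQ|S). The substrate sits between flexible linkers in a Bxb1-sfGFP-TEVs-SsrA fusion, so cleavage stabilises Bxb1 and speeds flipping of a recombination array, read by NGS. The value is the raw area under the fraction-flipped curve over 0-4 h after rhamnose induction (AUC4h), with ≥20 reads per time point. It is not background-subtracted; inactive controls average about 0.047.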
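Further: Bxb1 expression induced with 0.2% (w/v) L-rhamnose at OD600 near 0.5, cultures sampled hourly, flipped fraction per protease–substrate barcode pair counted by paired-end Illumina sequencing.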

Variant | area with substrate ENLYAQS | area with substrate ENLYCQS | area with substrate ENLYEQS | area with substrate ENLYGQS | area with substrate ENLYHQS | area with substrate ENLYIQS | area with substrate ENLYKQS | area with substrate ENLYNQS | area with substrate ENLYPQS | area with substrate ENLYRQS | area with substrate ENLYSQS | area with substrate ENLYTQS | area with substrate ENLYVQS | area with substrate ENLYDQS | area with substrate ENLYMQS | area with substrate ENLYQQS | area with substrate ENLYWQS | area with substrate ENLYYQS | area with substrate ENLYLQS
S60F | 0.0706 | 0.104 | 0.0609 | 0.0588 | 0.0994 | 0.158 | 0.0311 | 0.0736 | 0.0768 | 0.0606 | 0.111 | 0.0748 | 0.128 | – | – | – | – | – | –
S60V | 0.0601 | 0.0709 | 0.0598 | 0.0569 | 0.0566 | 0.108 | 0.0635 | 0.072 | 0.0695 | 0.0579 | 0.0627 | – | 0.108 | 0.0609 | 0.07 | 0.0571 | 0.0792 | 0.0603 | –
L61N | 0.0625 | – | 0.105 | 0.0665 | 0.0642 | 0.129 | 0.0174 | 0.0734 | 0.086 | 0.073 | – | – | – | 0.0665 | 0.0796 | – | – | – | –
G63F | 0.0686 | – | 0.058 | 0.0592 | 0.07 | 0.116 | 0.0613 | 0.0712 | 0.0606 | 0.0462 | 0.0566 | 0.107 | – | 0.0742 | – | – | 0.0582 | – | –
G63I | 0.0766 | 0.0761 | 0.055 | – | 0.062 | – | 0.0558 | 0.0609 | 0.0533 | – | 0.0776 | – | 0.0852 | – | 0.0916 | 0.0661 | 0.0485 | 0.0594 | –
G63M | 0.0777 | 0.0729 | 0.0526 | 0.07 | 0.0634 | 0.104 | 0.0584 | 0.0635 | – | 0.0716 | 0.0726 | – | – | 0.0578 | – | 0.0586 | 0.0702 | – | –
K66R | 0.0567 | – | 0.0595 | 0.0455 | 0.079 | 0.137 | 0.0689 | 0.0597 | – | 0.0548 | – | – | – | – | 0.122 | 0.0742 | 0.0975 | 0.0553 | 0.0983
K68F | 0.0835 | – | – | – | 0.0678 | 0.104 | 0.0602 | 0.0723 | 0.0849 | 0.0635 | – | 0.0574 | – | – | 0.0812 | – | 0.0724 | – | –
D69H | 0.0625 | – | 0.0643 | 0.0609 | 0.0635 | 0.0946 | 0.0543 | 0.0562 | 0.0608 | 0.0544 | 0.0697 | 0.0851 | 0.0902 | 0.0597 | 0.0777 | – | – | 0.0487 | –
T71F | 0.058 | – | 0.0635 | 0.0798 | 0.0659 | 0.0879 | 0.0532 | 0.0633 | 0.0643 | 0.0599 | 0.0669 | – | – | 0.051 | 0.0571 | 0.0555 | 0.0779 | 0.06 | 0.0794
Q74G | 0.0657 | 0.0677 | 0.0689 | – | 0.0647 | – | 0.0613 | 0.0614 | 0.0797 | 0.0582 | 0.0676 | – | – | 0.0668 | 0.0841 | 0.0604 | 0.083 | – | –
H76E | 0.077 | 0.0724 | 0.0723 | – | 0.0631 | – | 0.0283 | 0.0643 | 0.064 | – | 0.0481 | – | 0.0754 | 0.071 | – | 0.0699 | 0.0798 | 0.0409 | –
V78G | 0.0512 | 0.0695 | 0.0604 | 0.0653 | 0.0716 | – | – | 0.0614 | 0.07 | – | 0.0603 | 0.0666 | 0.0672 | 0.0546 | – | – | 0.0742 | – | –
D79L | 0.0726 | – | 0.0715 | 0.0812 | 0.0619 | 0.101 | – | 0.0648 | – | 0.0655 | – | 0.0403 | 0.0922 | 0.0664 | 0.0848 | – | 0.0715 | – | –
